Each structure is given as a SMILES string. Out of some 150,000 compounds screened, about 540 (0.36%) showed an effect of 50% or more. The list shows a part of the results.

For the experiment, the system named is Plasmodium falciparum. The experiment can be described thus: Primary screen in NF54 nanoGlo assay, in single point, at 2uM, 72h; a lower Z score goes with more inhibition. Type of experiment: functional, Erythrocyte. Particulars: timepoint 72 hour.
Take `O=C1CC[C@H](NC(=O)C2(Cc3cccc(F)c3)CCCCC2)C2(CCC2)N1`: the % Inhibition (usually the change of the read-out against control, counted positive when it falls) came to 1% and the Z score is on record as -0.22.

Turning to `COCCOCC(=O)NCc1nc(C)c(C)s1`, the “% Inhibition” value was -5% and the Z score worked out at 1.01.

In the case of `COc1cccc(C(CNCc2c(C)nn(C3CCS(=O)(=O)C3)c2C)N2CCCC2)c1` (stereo unspecified), the “% Inhibition” value is listed as -6% and the Z score is given as 0.76.

For the compound `COc1ccccc1S(=O)(=O)N(c1ccc2[nH]ccc2c1)[C@@H](C)CC(C)C`, the “% Inhibition” value is recorded as -1% and the Z score turned out to be 0.23.

As for `CN(C)CC(=O)N1CC[C@H]2COC(=O)N2c2cc(F)ccc2C1`, the “% Inhibition” value amounted to 7% and the Z score is on record as -0.92.

In the case of `COc1ccc(CCNCCC(=O)N2CCC[C@H](C)C2)cc1`, the “% Inhibition” value is listed as -19% and the Z score worked out at 2.4.

For the compound `Cc1cc(NC(=O)C(C)NC2CCCN(Cc3noc(C)n3)C2)on1` (stereo unspecified), the “% Inhibition” value is on record as -13% and the Z score is given as 1.5.

As for `Cc1ccc(CNC(=O)c2nnc(-c3oc4ccc(C)cc4c3C)o2)cc1`, the “% Inhibition” value was 13% and the Z score is -1.56.

On to `CCc1ccc(CNC(=O)[C@H](CC)n2nc(C)c3nn(-c4ccccc4)c(C)c3c2=O)cc1`, for which the “% Inhibition” value was -3% and the Z score is recorded as 0.36.

As for `Nc1nc(-c2ccncc2)cc(N2CCCC2)n1`, the “% Inhibition” value is reported as -21% and the Z score worked out at 1.96.

Regarding `O=C(NCCN1CCN(c2ncnc3[nH]ncc23)CC1)C1CCC1`, the “% Inhibition” value was 4% and the Z score is -0.58.

With `COCc1nc([C@@H]2CCCCCN2C(=O)Nc2c(F)cccc2F)no1`, the “% Inhibition” value is listed as -10% and the Z score was found to be 1.03.

As for `CCCC(=O)N1CCC(N2C[C@@H]3NC(=O)CN(CCOC)C(=O)CCc4ccc(OC)c(c4)Oc4cccc(c4)CO[C@H]3C2)CC1`, the “% Inhibition” value is reported as -9% and the Z score came out at 1.78.

On to `COc1ccc(-c2cn3c4ccccc4nc3n2CCN2CCN(C)CC2)cc1`, for which the “% Inhibition” value stood at 27% and the Z score is on record as -3.09.

For `CCCCCNC(=O)c1nc(-c2ccc(N3CCCCC3)nc2)no1`, the “% Inhibition” value came out at 0% and the Z score amounted to 0.04.

Regarding `COc1ccc(Cl)cc1C(=O)N1N=C(C2CC2)C[C@]1(O)C(F)(F)F`, the “% Inhibition” value is recorded as 3% and the Z score is listed as -0.52.

As to `Cn1nc(C(=O)Nc2nc3c(s2)CN(S(=O)(=O)C2CC2)CC3)ccc1=O`, the “% Inhibition” value is -9% and the Z score worked out at 1.27.

On to `Cc1cc(NC(=O)NC(C)(C)C(=O)NCC(C)(C)C)c(C)cn1`, for which the “% Inhibition” value is on record as 3% and the Z score is listed as -0.5.

For `O=C1CCN(C(=O)Nc2ccccc2)CCN1`, the “% Inhibition” value was -17% and the Z score is given as 3.4.

As for `COCC(=O)N[C@@H](C)C(=O)N(C)CC(=O)Nc1c(C)cc(C)cc1C`, the “% Inhibition” value amounted to 29% and the Z score is -3.23.

For the compound `CC1COC(c2ccccc2)C(C)N1C(=O)c1cccn1C` (stereo unspecified), the “% Inhibition” value was -8% and the Z score amounted to 0.99.

On to `COc1ccccc1-c1nnc(Cn2cnc3c2CCCC3)o1`, for which the “% Inhibition” value was -5% and the Z score came out at 0.87.

Take `Cc1nc(Cn2cc(-c3ccc(C)c(C)c3)nn2)n[nH]1`: the “% Inhibition” value is reported as -14% and the Z score is given as 2.08.
